Results reported in the supplement of paper PMC5919970.
Structures can show the parent of a compound that is named as a salt. The full ranking holds about 2,000 compounds; the median of “fractional viability relative to vehicle” is about 0.92, and the lowest 2% start at about 0.11. This is one part of the list.

Tested on: TYKNU
Experiment: fractional viability relative to vehicle; TYKNU is a high-grade serous ovarian cancer line; higher = less growth inhibition
Conditions: 72 h, genotype: OPA1 knockout (sgOPA1 #2)
Outline: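 TYKNU control cells or lentiCRISPRv2 knockout derivatives were seeded at 500 cells per well into drug-stamped 384-well plates holding a ~2100-compound library at 2 or 10 μM, in duplicate. Cells were grown at 37 °C in 5% CO2 in RPMI 1640 with 10% FBS, and drug treatment lasted 72 h. Viability was read by Cell Titer Glo luminescence. Duplicate treatment wells were averaged and normalised to duplicate control wells from the same plate position.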

Row | SMILES | fractional viability (2uM) | fractional viability (10uM)
1 | NNC(=O)c1ccncc1 [Isoniazid] | 1.01 | 1.08
2 | CC1(C)C=C(CN2C/C(=C\c3ccc(F)cc3)C(=O)/C(=C/c3ccc(F)cc3)C2)C(C)(C)N1O | 0.837 | 0.79
3 | COc1ccc(-c2ccc3cc(C(=O)O)ccc3c2)cc1C12CC3CC(CC(C3)C1)C2 [Adapalene] | 0.896 | 0.583
4 | COc1cc2c(NC3CCN(CC4CCCCC4)CC3)nc(N3CCCN(C(C)C)CC3)nc2cc1OCCCN1CCCCC1 | 0.786 | 0.0322
5 | O=C(O)c1cccnc1 [Nicotinic Acid] | 1.15 | 1.03
6 | CCCCc1oc2ccccc2c1C(=O)c1cc(I)c(OCCN(CC)CC)c(I)c1 [Amiodarone HCl] | 0.994 | 0.867
7 | O=c1[nH]c(=O)n([C@H]2C[C@H](O)[C@@H](CO)O2)cc1I [Idoxuridine] | 0.874 | 0.935
8 | CN1CCN(c2ccc3nc(-c4c(N)c5c(F)cccc5[nH]c4=O)[nH]c3c2)CC1 [Dovitinib (TKI-258, CHIR-258)] | 0.815 | 0.25
9 | CN1CCN(c2ccc3nc(-c4c(N)c5c(F)cccc5[nH]c4=O)[nH]c3c2)CC1 [Dovitinib (TKI258) Lactate] | 0.815 | 0.0801
10 | C=CCNC1=C2C[C@@H](C)C[C@H](OC)[C@H](O)[C@@H](C)/C=C(\C)[C@H](OC(N)=O)[C@@H](OC)/C=C\C=C(/C)C(=O)NC(=CC1=O)C2=O [17-AAG (Tanespimycin)] | 0.652 | 0.468
11 | Cc1cccc(N(C)C(=S)Oc2ccc3ccccc3c2)c1 [Tolnaftate] | 1.06 | 1.12
12 | CCS(=O)(=O)c1cccc(-c2cc(C(=O)NC3CCN(C)CC3)c(C)c3[nH]c4ncc(C)cc4c23)c1 | 0.598 | 0.127
13 | COC(=O)[C@H](Cc1ccccc1)NC(=O)[C@@H](N)CC(=O)O [Aspartame] | 1.06 | 0.956
14 | CNC(=O)[C@@H](NC(=O)[C@H](CC(C)C)[C@H](O)C(=O)NO)C(C)(C)C [Marimastat(BB-2516)] | 0.952 | 0.73
15 | C[C@]12CC[C@@H]3c4ccc(O)cc4C[C@@H](CCCCCCCCC[S+]([O-])CCCC(F)(F)C(F)(F)F)[C@H]3[C@@H]1CC[C@@H]2O (stereo partly specified) [Fulvestrant] | 1.2 | 0.949
16 | Clc1ccc(C2(c3ccc(-c4cn[nH]c4)cc3)CCNCC2)cc1 | 1.03 | 0.554
17 | C=C[C@](C)(O)CC[C@@H]1[C@@]2(C)CCCC(C)(C)[C@@H]2CC[C@@]1(C)O [Sclareol] | 1.05 | 0.892
18 | Clc1ccc2nsnc2c1NC1=NCCN1 [Tizanidine HCl] | 1.22 | 1.01
19 | Cc1cc(Nc2cc(N3CCN(C)CC3)nc(Sc3ccc(NC(=O)C4CC4)cc3)n2)n[nH]1 [VX-680 (Tozasertib, MK-0457)] | 0.817 | 0.88
20 | CC(C)Oc1ccc2c(=O)c(-c3ccccc3)coc2c1 [Ipriflavone (Osteofix)] | 0.805 | 0.958
21 | Nc1nc(OCc2cc(Br)cs2)c2[nH]cnc2n1 [Lomeguatrib] | 0.688 | 0.314
22 | CCCCOc1ccc(C(=O)Nc2ccc(F)cc2F)cc1 | 0.933 | 0.902
23 | NC1(Cc2ccc(Cl)cc2)CCN(c2ncnc3[nH]ccc23)CC1 | 1.21 | 0.517

Row | SMILES | fractional viability (2uM) | fractional viability (10uM)
24 | N[C@H]1CC[C@H](N[C@@H]2C[C@H]2c2ccccc2)CC1 | 0.794 | 0.89
25 | Cc1cc(C(C)Nc2ccccc2)c2nc(N3CCOCC3)cc(=O)n2c1 (stereo unspecified) | 1.06 | 1.02
26 | CCOC(=O)C1=C(N)Oc2ccc(Br)cc2C1C(C#N)C(=O)OCC (stereo unspecified) | 1.13 | 0.72
27 | N#C/C(=C1/SC[C@@H](c2ccc(Cl)cc2Cl)S1)n1ccnc1 [Luliconazole] | 0.989 | 0.818
28 | O=[N+]([O-])c1ccc(Nc2nc(N3CCOCC3)nc(N3CCOCC3)n2)cc1 | 0.893 | 0.934
29 | CCCCOc1cc(C(=O)OCCN(CC)CC)ccc1N [Oxybuprocaine HCl] | 1.02 | 0.765
30 | O=C1O[C@H]([C@@H](O)CO)C([O-])=C1O.[Na+] [Sodium ascorbate] | 1.02 | 0.95
31 | CC(C=CC1(O)C(C)=CC(=O)CC1(C)C)=CC(=O)O (stereo unspecified) [Abscisic Acid (Dormin_] | 0.754 | 0.809
32 | CCN(CC)CCNC(=O)c1ccc(N)cc1 [Procainamide HCl] | 1.06 | 0.849
33 | NC[C@H](O)c1ccc(O)c(O)c1 [Noradrenaline bitartrate monohydrate] | 0.863 | 0.65
34 | CCc1cc2c(cc1CC)CC(NC[C@H](O)c1ccc(O)c3[nH]c(=O)ccc13)C2 [Indacaterol Maleate] | 0.868 | 0.721
35 | C=C[C@]1(C)C[C@@H](OC(=O)CSC(C)(C)CNC(=O)[C@H](N)C(C)C)[C@]2(C)[C@H](C)CC[C@]3(CCC(=O)[C@H]32)[C@@H](C)[C@@H]1O [Valnemulin HCl] | 1.01 | 0.941
36 | Cc1c(-c2ccc(O)cc2)n(Cc2ccc(OCCN3CCCCCC3)cc2)c2ccc(O)cc12 [Bazedoxifene HCl] | 1.02 | 0.329
37 | Cc1c(-c2ccc(O)cc2)n(Cc2ccc(OCCN3CCCCCC3)cc2)c2ccc(O)cc12 [Bazedoxifene Acetate] | 0.812 | 0.176
38 | O=C(O)c1cccc(-c2noc(-c3ccccc3F)n2)c1 [Ataluren (PTC124)] | 0.901 | 0.531
39 | Nc1ccc(S(=O)(=O)Nc2nccs2)cc1 [Sulfathiazole] | 1.07 | 0.871
40 | Cc1ccc(-c2cc(C(F)(F)F)nn2-c2ccc(S(N)(=O)=O)cc2)cc1 [Celecoxib] | 0.935 | 0.971
41 | CC(C)[N+]1(C)[C@@H]2CC[C@H]1C[C@@H](OC(=O)C(CO)c1ccccc1)C2 (stereo partly specified) [Ipratropium Bromide] | 1.2 | 0.954
42 | CC[C@H]1OC(=O)[C@H](C)[C@@H](O[C@H]2C[C@@](C)(OC)[C@@H](O)[C@H](C)O2)[C@H](C)[C@@H](O[C@@H]2O[C@H](C)C[C@H](N(C)C)[C@H]2O)[C@](C)(O)C[C@@H](C)CN(C)[C@H](C)[C@@H](O)[C@]1(C)O [Azithromycin] | 1.01 | 1.2
43 | OCCn1cc(-c2ccc3c(c2)CC/C3=N\O)c(-c2ccncc2)n1 | 1.14 | 0.942
44 | CN1CCc2nc(C(=O)N[C@@H]3C[C@@H](C(=O)N(C)C)CC[C@@H]3NC(=O)C(=O)Nc3ccc(Cl)cn3)sc2C1 [Edoxaban] | 1.05 | 0.951
45 | CN[C@H]1CC[C@@H](c2ccc(Cl)c(Cl)c2)c2ccccc21 [Sertraline HCl] | 0.99 | 0.613
46 | O=C(/C=C/c1cccc(S(=O)(=O)Nc2ccccc2)c1)NO [Belinostat (PXD101)] | 0.484 | 0.219

Row | SMILES | fractional viability (2uM) | fractional viability (10uM)
47 | CC(C)(C)c1cc(NC(=O)Nc2ccc(-c3cn4c(n3)sc3cc(OCCN5CCOCC5)ccc34)cc2)no1 [Quizartinib (AC220)] | 0.85 | 0.746
48 | CNC(=O)c1ccc(N2C(=S)N(c3ccc(C#N)c(C(F)(F)F)c3)C(=O)C2(C)C)cc1F [Enzalutamide (MDV3100)] | 1.01 | 0.785
49 | CCCc1ccc(OCC(=O)N(Cc2nc(-c3cccnc3)no2)C(C)C)cc1 | 0.791 | 0.721
50 | COc1cc(OC)c(NC(=O)Nc2cc(C)on2)cc1Cl | 1.02 | 1.1
51 | COc1cc2nc(N3CCN(C(=O)C4COc5ccccc5O4)CC3)nc(N)c2cc1OC (stereo unspecified) [Doxazosin Mesylate] | 1.1 | 1.22
52 | N#C/C(=C(/N)Sc1ccc(N)cc1)c1ccccc1C(F)(F)F | 1.02 | 0.887
53 | NC[C@@](O)(c1ccc(Cl)cc1)c1ccc(-c2cn[nH]c2)cc1 | 0.858 | 0.87
54 | O=c1c(O)c(-c2ccc(O)cc2)oc2cc(O)cc(O)c12 [Kaempferol] | 0.953 | 1.09
55 | CCN(CC)C(=O)C1(c2ccccc2)CC1CN (stereo unspecified) [Milnacipran HCl] | 1.09 | 0.898
56 | Cc1cc(C(C)(C)C)cc(C)c1CC1=NCCN1 [Xylometazoline HCl] | 1.03 | 0.893
57 | COc1cc(NC(=O)c2ccccn2)ccc1Cl | 0.917 | 0.999
58 | c1ccc(Cn2c(-c3ccc(OC[C@H](C4CCNCC4)n4c(-c5ccccc5)nc5ccccc54)cc3)nc3ccccc32)cc1 [Deltarasin] | 1.14 | 0.0644
59 | CC#CCn1c(N2CCC[C@@H](N)C2)nc2c1c(=O)n(Cc1nc(C)c3ccccc3n1)c(=O)n2C [Linagliptin] | 0.874 | 0.907
60 | CCN(CC)CCOCCOC(=O)C1(c2ccccc2)CCCC1 [Pentoxyverine Citrate] | 0.934 | 0.831
61 | COc1ccc(Cl)cc1C(=O)NCCc1ccc(S(=O)(=O)NC(=O)NC2CCCCC2)cc1 [Glyburide] | 0.986 | 0.837
62 | Nc1nc(=O)n([C@@H]2CS[C@H](CO)O2)cc1F [Emtricitabine] | 0.979 | 0.839
63 | CC#C[C@]1(O)CC[C@H]2[C@@H]3CCC4=CC(=O)CCC4=C3[C@@H](c3ccc(N(C)C)cc3)C[C@@]21C [Mifepristone] | 1.04 | 0.816
64 | CC[C@@H]1C(=O)N(C)c2cnc(Nc3ccc(C(=O)N[C@H]4CC[C@H](N5CCN(CC6CC6)CC5)CC4)cc3OC)nc2N1C(C)C [Volasertib (BI 6727)] | 1.07 | 1.06
65 | COC(=O)N[C@@H](C)CNc1nccc(-c2cn(C(C)C)nc2-c2cc(Cl)cc(NS(C)(=O)=O)c2F)n1 | 0.547 | 0.46
66 | CCc1cccc(CC)c1NC(=O)N1Cc2[nH]nc(NC(=O)c3ccc(N4CCN(C)CC4)cc3)c2C1 | 1.02 | 0.885
67 | COC(=O)C1=CO[C@@H](O)[C@@H]2C(CO)=CC[C@H]12 [Genipin] | 1.03 | 0.69
68 | Cc1nc(C(=O)NCC(=O)O)c(O)c2ccc(Oc3ccccc3)cc12 | 1.11 | 1.04
